Where two headings read alike, the source gives them in different places. Results are given in words; binding and its absence hold for the method and conditions named. In cells and extracts the contact can be indirect. Some entries that bind do so weakly or less than the wild type.
What was measured:
[1] = target: TFEB-EGFP (UniProt P19484); assay: co-IP; HEK293T cells co-transfected; lysates (20 mM Tris-Cl pH 7.4, 150 mM NaCl, 1% Triton X-100) immunoprecipitated with anti-GFP antibody overnight at 4 °C, Protein G or A/G beads, immunoblot; in some panels with co-expressed VSVG-LRP6 or Flag-TNKS1, or treatment with XAV939 or MG132
[2] = target: Flag-TFEB (UniProt P19484); assay: co-IP; HEK293T cells expressing Flag-TFEB and Myc-Axin1, treated with Wnt3a-CM; immunoprecipitation with anti-Flag antibody, immunoblot
[3] = target: TFEB V65D/G67V/E68A-EGFP (UniProt P19484); assay: co-IP; HEK293T cells co-transfected; lysates (20 mM Tris-Cl pH 7.4, 150 mM NaCl, 1% Triton X-100) immunoprecipitated with anti-GFP antibody overnight at 4 °C, Protein G or A/G beads, immunoblot; in some panels with co-expressed VSVG-LRP6 or Flag-TNKS1, or treatment with XAV939 or MG132
[4] = target: TFEB-EGFP (UniProt P19484); assay: as above; remark: listed apart in the source

Protein sequences, listed by entry. Tags and fused reporters are not part of them. Lines headed by an entry give the natural chain unless they say otherwise; changes in a name come on top.
UniProt P19484: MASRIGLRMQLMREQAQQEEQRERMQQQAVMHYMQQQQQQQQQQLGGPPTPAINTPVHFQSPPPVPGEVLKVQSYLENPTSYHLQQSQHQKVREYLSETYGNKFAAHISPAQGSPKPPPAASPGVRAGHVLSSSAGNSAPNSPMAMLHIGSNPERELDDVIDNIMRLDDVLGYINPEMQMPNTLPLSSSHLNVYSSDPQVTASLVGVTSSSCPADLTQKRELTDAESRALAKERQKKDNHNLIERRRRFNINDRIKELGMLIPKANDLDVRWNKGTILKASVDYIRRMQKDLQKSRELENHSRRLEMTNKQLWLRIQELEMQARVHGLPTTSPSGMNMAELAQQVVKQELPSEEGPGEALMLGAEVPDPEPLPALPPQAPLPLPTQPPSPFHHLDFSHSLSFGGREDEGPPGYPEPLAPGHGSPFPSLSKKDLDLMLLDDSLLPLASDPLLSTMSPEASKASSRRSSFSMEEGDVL
UniProt O95271: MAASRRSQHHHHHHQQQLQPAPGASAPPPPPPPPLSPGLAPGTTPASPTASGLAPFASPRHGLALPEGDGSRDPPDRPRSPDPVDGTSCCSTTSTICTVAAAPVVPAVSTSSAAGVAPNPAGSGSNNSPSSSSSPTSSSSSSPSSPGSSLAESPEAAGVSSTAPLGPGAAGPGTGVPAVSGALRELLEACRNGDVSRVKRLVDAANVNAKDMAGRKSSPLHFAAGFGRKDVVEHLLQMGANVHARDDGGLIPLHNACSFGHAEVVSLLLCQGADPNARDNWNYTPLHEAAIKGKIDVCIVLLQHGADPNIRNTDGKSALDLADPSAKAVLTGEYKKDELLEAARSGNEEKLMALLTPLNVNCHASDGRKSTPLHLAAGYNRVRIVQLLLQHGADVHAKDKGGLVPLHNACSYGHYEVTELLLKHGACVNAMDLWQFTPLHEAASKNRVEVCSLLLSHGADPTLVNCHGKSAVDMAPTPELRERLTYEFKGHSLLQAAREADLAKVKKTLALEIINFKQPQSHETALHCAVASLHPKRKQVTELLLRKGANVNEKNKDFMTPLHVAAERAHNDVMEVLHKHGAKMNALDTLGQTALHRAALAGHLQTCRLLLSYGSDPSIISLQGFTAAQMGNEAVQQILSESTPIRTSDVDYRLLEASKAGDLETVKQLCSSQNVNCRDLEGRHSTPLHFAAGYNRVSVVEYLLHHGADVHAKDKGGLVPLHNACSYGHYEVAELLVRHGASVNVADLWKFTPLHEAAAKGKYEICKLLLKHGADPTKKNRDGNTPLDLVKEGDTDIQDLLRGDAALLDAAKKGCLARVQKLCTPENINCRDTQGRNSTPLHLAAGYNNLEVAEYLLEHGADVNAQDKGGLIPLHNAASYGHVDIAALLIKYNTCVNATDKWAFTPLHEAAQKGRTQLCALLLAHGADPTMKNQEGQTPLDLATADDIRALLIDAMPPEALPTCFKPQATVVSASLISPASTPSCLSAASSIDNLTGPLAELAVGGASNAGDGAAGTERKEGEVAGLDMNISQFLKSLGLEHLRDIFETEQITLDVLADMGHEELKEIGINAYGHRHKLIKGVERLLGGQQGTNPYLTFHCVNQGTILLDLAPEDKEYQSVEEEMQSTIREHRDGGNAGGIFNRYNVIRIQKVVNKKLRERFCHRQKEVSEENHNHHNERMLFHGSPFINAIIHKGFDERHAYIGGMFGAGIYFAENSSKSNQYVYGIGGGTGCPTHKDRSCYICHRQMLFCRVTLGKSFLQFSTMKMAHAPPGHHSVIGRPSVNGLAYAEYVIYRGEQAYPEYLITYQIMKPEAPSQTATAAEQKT
UniProt Q9UJU2: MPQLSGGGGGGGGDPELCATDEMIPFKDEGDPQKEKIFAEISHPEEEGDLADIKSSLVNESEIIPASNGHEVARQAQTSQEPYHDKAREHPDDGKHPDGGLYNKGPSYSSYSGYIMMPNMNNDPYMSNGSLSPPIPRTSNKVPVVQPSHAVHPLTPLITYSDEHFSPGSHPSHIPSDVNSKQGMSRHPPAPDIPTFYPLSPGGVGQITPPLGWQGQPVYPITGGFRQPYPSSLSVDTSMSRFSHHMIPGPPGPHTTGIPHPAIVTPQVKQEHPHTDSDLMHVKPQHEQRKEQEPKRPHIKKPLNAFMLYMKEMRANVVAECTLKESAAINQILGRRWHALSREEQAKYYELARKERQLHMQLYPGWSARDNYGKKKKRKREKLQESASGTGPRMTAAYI
UniProt O15169: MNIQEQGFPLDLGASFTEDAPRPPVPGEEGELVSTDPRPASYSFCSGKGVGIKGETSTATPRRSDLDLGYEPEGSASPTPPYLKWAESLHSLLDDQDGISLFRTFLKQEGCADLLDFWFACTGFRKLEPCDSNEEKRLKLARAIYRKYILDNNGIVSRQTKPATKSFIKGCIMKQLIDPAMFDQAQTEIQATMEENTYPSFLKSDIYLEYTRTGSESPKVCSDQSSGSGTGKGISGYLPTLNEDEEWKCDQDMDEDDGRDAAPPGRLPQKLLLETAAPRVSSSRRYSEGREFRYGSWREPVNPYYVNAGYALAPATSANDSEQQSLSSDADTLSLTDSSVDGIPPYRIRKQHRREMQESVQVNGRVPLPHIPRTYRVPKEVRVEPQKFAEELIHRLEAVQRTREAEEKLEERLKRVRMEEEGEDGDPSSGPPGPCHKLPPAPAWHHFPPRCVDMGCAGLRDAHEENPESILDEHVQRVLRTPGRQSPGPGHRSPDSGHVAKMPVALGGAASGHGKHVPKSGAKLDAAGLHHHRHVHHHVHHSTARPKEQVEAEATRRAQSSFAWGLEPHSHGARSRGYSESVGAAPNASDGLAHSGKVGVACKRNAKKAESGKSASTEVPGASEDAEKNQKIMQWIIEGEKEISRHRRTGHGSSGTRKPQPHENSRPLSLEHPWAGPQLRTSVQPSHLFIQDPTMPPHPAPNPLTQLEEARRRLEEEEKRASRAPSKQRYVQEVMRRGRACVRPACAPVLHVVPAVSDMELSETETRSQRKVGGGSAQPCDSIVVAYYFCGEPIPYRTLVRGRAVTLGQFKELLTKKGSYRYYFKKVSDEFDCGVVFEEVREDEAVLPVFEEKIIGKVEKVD
UniProt P36402: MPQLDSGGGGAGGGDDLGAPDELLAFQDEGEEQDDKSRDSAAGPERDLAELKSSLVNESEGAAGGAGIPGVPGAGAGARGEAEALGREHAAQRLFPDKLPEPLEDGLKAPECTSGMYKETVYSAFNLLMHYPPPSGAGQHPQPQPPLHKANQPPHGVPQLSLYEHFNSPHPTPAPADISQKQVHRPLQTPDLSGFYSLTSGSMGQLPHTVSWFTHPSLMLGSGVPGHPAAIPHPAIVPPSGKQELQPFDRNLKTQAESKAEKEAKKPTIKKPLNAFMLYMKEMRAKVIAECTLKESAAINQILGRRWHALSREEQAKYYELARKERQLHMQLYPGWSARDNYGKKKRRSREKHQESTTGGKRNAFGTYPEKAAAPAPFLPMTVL

binding [1] | binding [2] | binding [3] | binding [4] | Molecule
binds |  |  |  | Flag-TNKS1 (from UniProt O95271 1-1327) (enzyme)
binds |  |  |  | LEF1 (from UniProt Q9UJU2 1-399)
binds | binds | binds |  | Myc-Axin1 (from UniProt O15169 1-862)
binds |  |  |  | TCF1 (from UniProt P36402 1-384)
 |  |  | no binding | TCF3 (protein, UniProt Q9HCS4 1-588) MPQLGGGGGGGGGGSGGGGGSSAGAAGGGDDLGANDELIPFQDEGGEEQEPSSDSASAQRDLDEVKSSLVNESENQSSSSDSEAERRPQPVRDTFQKPRDYFAEVRRPQDSAFFKGPPYPGYPFLMIPDLSSPYLSNGPLSPGGARTYLQMKWPLLDVPSSATVKDTRSPSPAHLSNKVPVVQHPHHMHPLTPLITYSNDHFSPGSPPTHLSPEIDPKTGIPRPPHPSELSPYYPLSPGAVGQIPHPLGWLVPQQGQPMYSLPPGGFRHPYPALAMNASMSSLVSSRFSPHMVAPAHPGLPTSGIPHPAIVSPIVKQEPAPPSLSPAVSVKSPVTVKKEEEKKPHVKKPLNAFMLYMKEMRAKVVAECTLKESAAINQILGRKWHNLSREEQAKYYELARKERQLHSQLYPTWSARDNYGKKKKRKREKQLSQTQSQQQVQEAEGALASKSKKPCVQYLPPEKPCDSPASSHGSMLDSPATPSAALASPAAPAATHSEQAQPLSLTTKPETRAQLALHSAAFLSAKAAASSSGQMGSQPPLLSRPLPLGSMPTALLASPPSFPATLHAHQALPVLQAQPLSLVTKSAH
